Measured values as given in the supplement of paper PMC12230231.

tested on: SIVsab (simian immunodeficiency virus of sabaeus monkeys), single-cycle GFP reporter, in CRFK cells; assay: enrichment among uninfected cells over input (fold); higher = stronger restriction; settings: library: human / rhesus combinations
Description: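 Pools of CRFK cells expressing variants of the TRIM5α v1 loop were challenged with the single-cycle reporter, sorted by GFP and sequenced; mean of two replicates.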

Question: For “MASGILVNVKEEVTCPICLELLTQPLSLDCGHSFCQACLTANHKKSMLDKGESSCPVCRISYQPENIRPNRHVANIVEKLREVKLSPEGQKVDHCARHGEKLLLFCQEDGKVICWLCERSQEHRGHHTFLTEEVAREYQVKLQAALEMLRQKQQEAEELEADIREEKASWKTQIQYDKTNVLADFEQLRDILDWEESNELQNLEKEEEDILKSLTNSETEMVQQTQSLRELISDLEHRLQGSVMELLQGVDGVIKRTENVTLKKPETFPKNQRRVFRAPDLKGMLEVFRELTDVRRYWVDVTVAPNNISCAVISEDKRQVSSPKPQIIYGARGTLFTFQSLVNFNYCTGILGSQSITSGKHYWEVDVSKKTAWILGVCAGFQPDAMCNIEKNENYQPKYGYWVIGLEEGVKCSAFQDSSFHTPSVPFIVPLSVIICPDRVGVFLDYEACTVSFFNITNHGFLIYKFSHCSFSQPVFPYLNPRKCGVPMTLCSPSS [human TRIM5α, 330-340 = GARGTLFTFQSLV]”, which enrichment is on record?
Answer: 0.0665 ± 0.093

Question: “MASGILVNVKEEVTCPICLELLTQPLSLDCGHSFCQACLTANHKKSMLDKGESSCPVCRISYQPENIRPNRHVANIVEKLREVKLSPEGQKVDHCARHGEKLLLFCQEDGKVICWLCERSQEHRGHHTFLTEEVAREYQVKLQAALEMLRQKQQEAEELEADIREEKASWKTQIQYDKTNVLADFEQLRDILDWEESNELQNLEKEEEDILKSLTNSETEMVQQTQSLRELISDLEHRLQGSVMELLQGVDGVIKRTENVTLKKPETFPKNQRRVFRAPDLKGMLEVFRELTDVRRYWVDVTVAPNNISCAVISEDKRQVSSPKPQIIYQARGTRFTFQSFTNFNYCTGILGSQSITSGKHYWEVDVSKKTAWILGVCAGFQPDAMCNIEKNENYQPKYGYWVIGLEEGVKCSAFQDSSFHTPSVPFIVPLSVIICPDRVGVFLDYEACTVSFFNITNHGFLIYKFSHCSFSQPVFPYLNPRKCGVPMTLCSPSS [human TRIM5α, 330-340 = QARGTRFTFQSFT]” was tested. Which enrichment did it give?
Answer: 0.283 ± 0.12

Question: For “MASGILVNVKEEVTCPICLELLTQPLSLDCGHSFCQACLTANHKKSMLDKGESSCPVCRISYQPENIRPNRHVANIVEKLREVKLSPEGQKVDHCARHGEKLLLFCQEDGKVICWLCERSQEHRGHHTFLTEEVAREYQVKLQAALEMLRQKQQEAEELEADIREEKASWKTQIQYDKTNVLADFEQLRDILDWEESNELQNLEKEEEDILKSLTNSETEMVQQTQSLRELISDLEHRLQGSVMELLQGVDGVIKRTENVTLKKPETFPKNQRRVFRAPDLKGMLEVFRELTDVRRYWVDVTVAPNNISCAVISEDKRQVSSPKPQIIYQAPGTRFTFQTLTNFNYCTGILGSQSITSGKHYWEVDVSKKTAWILGVCAGFQPDAMCNIEKNENYQPKYGYWVIGLEEGVKCSAFQDSSFHTPSVPFIVPLSVIICPDRVGVFLDYEACTVSFFNITNHGFLIYKFSHCSFSQPVFPYLNPRKCGVPMTLCSPSS [human TRIM5α, 330-340 = QAPGTRFTFQTLT]”, which enrichment is on record?
Answer: 0.235 ± 0.17

Question: Which enrichment does the source give for “MASGILVNVKEEVTCPICLELLTQPLSLDCGHSFCQACLTANHKKSMLDKGESSCPVCRISYQPENIRPNRHVANIVEKLREVKLSPEGQKVDHCARHGEKLLLFCQEDGKVICWLCERSQEHRGHHTFLTEEVAREYQVKLQAALEMLRQKQQEAEELEADIREEKASWKTQIQYDKTNVLADFEQLRDILDWEESNELQNLEKEEEDILKSLTNSETEMVQQTQSLRELISDLEHRLQGSVMELLQGVDGVIKRTENVTLKKPETFPKNQRRVFRAPDLKGMLEVFRELTDVRRYWVDVTVAPNNISCAVISEDKRQVSSPKPQIIYGAPGTRFQSFVNFNYCTGILGSQSITSGKHYWEVDVSKKTAWILGVCAGFQPDAMCNIEKNENYQPKYGYWVIGLEEGVKCSAFQDSSFHTPSVPFIVPLSVIICPDRVGVFLDYEACTVSFFNITNHGFLIYKFSHCSFSQPVFPYLNPRKCGVPMTLCSPSS [human TRIM5α, 330-340 = GAPGTRFQSFV]” here?
Answer: 0.00789 ± 0.0035

Question: For “MASGILVNVKEEVTCPICLELLTQPLSLDCGHSFCQACLTANHKKSMLDKGESSCPVCRISYQPENIRPNRHVANIVEKLREVKLSPEGQKVDHCARHGEKLLLFCQEDGKVICWLCERSQEHRGHHTFLTEEVAREYQVKLQAALEMLRQKQQEAEELEADIREEKASWKTQIQYDKTNVLADFEQLRDILDWEESNELQNLEKEEEDILKSLTNSETEMVQQTQSLRELISDLEHRLQGSVMELLQGVDGVIKRTENVTLKKPETFPKNQRRVFRAPDLKGMLEVFRELTDVRRYWVDVTVAPNNISCAVISEDKRQVSSPKPQIIYGARGTRFTFQTLTNFNYCTGILGSQSITSGKHYWEVDVSKKTAWILGVCAGFQPDAMCNIEKNENYQPKYGYWVIGLEEGVKCSAFQDSSFHTPSVPFIVPLSVIICPDRVGVFLDYEACTVSFFNITNHGFLIYKFSHCSFSQPVFPYLNPRKCGVPMTLCSPSS [human TRIM5α, 330-340 = GARGTRFTFQTLT]”, which enrichment is on record?
Answer: 0.115 ± 0.054

Question: For “MASGILVNVKEEVTCPICLELLTQPLSLDCGHSFCQACLTANHKKSMLDKGESSCPVCRISYQPENIRPNRHVANIVEKLREVKLSPEGQKVDHCARHGEKLLLFCQEDGKVICWLCERSQEHRGHHTFLTEEVAREYQVKLQAALEMLRQKQQEAEELEADIREEKASWKTQIQYDKTNVLADFEQLRDILDWEESNELQNLEKEEEDILKSLTNSETEMVQQTQSLRELISDLEHRLQGSVMELLQGVDGVIKRTENVTLKKPETFPKNQRRVFRAPDLKGMLEVFRELTDVRRYWVDVTVAPNNISCAVISEDKRQVSSPKPQIIYGAPGTRYPSFVNFNYCTGILGSQSITSGKHYWEVDVSKKTAWILGVCAGFQPDAMCNIEKNENYQPKYGYWVIGLEEGVKCSAFQDSSFHTPSVPFIVPLSVIICPDRVGVFLDYEACTVSFFNITNHGFLIYKFSHCSFSQPVFPYLNPRKCGVPMTLCSPSS [human TRIM5α, 330-340 = GAPGTRYPSFV]”, which enrichment is on record?
Answer: 0.276 ± 0.38

same assay, conditions: library: insertions and deletions

Question: “MASGILVNVKEEVTCPICLELLTQPLSLDCGHSFCQACLTANHKKSMLDKGESSCPVCRISYQPENIRPNRHVANIVEKLREVKLSPEGQKVDHCARHGEKLLLFCQEDGKVICWLCERSQEHRGHHTFLTEEVAREYQVKLQAALEMLRQKQQEAEELEADIREEKASWKTQIQYDKTNVLADFEQLRDILDWEESNELQNLEKEEEDILKSLTNSETEMVQQTQSLRELISDLEHRLQGSVMELLQGVDGVIKRTENVTLKKPETFPKNQRRVFRAPDLKGMLEVFRELTDVRRYWVDVTVAPNNISCAVISEDKRQVSSPKPQIIYGARGTRARGTRYQTFVNFNYCTGILGSQSITSGKHYWEVDVSKKTAWILGVCAGFQPDAMCNIEKNENYQPKYGYWVIGLEEGVKCSAFQDSSFHTPSVPFIVPLSVIICPDRVGVFLDYEACTVSFFNITNHGFLIYKFSHCSFSQPVFPYLNPRKCGVPMTLCSPSS [human TRIM5α, 5-codon duplication at 331]” was tested. Which enrichment did it give?
Answer: 1.37 ± 0.55

Question: With “MASGILVNVKEEVTCPICLELLTQPLSLDCGHSFCQACLTANHKKSMLDKGESSCPVCRISYQPENIRPNRHVANIVEKLREVKLSPEGQKVDHCARHGEKLLLFCQEDGKVICWLCERSQEHRGHHTFLTEEVAREYQVKLQAALEMLRQKQQEAEELEADIREEKASWKTQIQYDKTNVLADFEQLRDILDWEESNELQNLEKEEEDILKSLTNSETEMVQQTQSLRELISDLEHRLQGSVMELLQGVDGVIKRTENVTLKKPETFPKNQRRVFRAPDLKGMLEVFRELTDVRRYWVDVTVAPNNISCAVISEDKRQVSSPKPIYGARGTRYQTFVNFNYCTGILGSQSITSGKHYWEVDVSKKTAWILGVCAGFQPDAMCNIEKNENYQPKYGYWVIGLEEGVKCSAFQDSSFHTPSVPFIVPLSVIICPDRVGVFLDYEACTVSFFNITNHGFLIYKFSHCSFSQPVFPYLNPRKCGVPMTLCSPSS [human TRIM5α, 2-codon deletion at 326]” as the sequence, how does the enrichment read?
Answer: 0.406 ± 0.32

Question: Which enrichment does the source give for “MASGILVNVKEEVTCPICLELLTQPLSLDCGHSFCQACLTANHKKSMLDKGESSCPVCRISYQPENIRPNRHVANIVEKLREVKLSPEGQKVDHCARHGEKLLLFCQEDGKVICWLCERSQEHRGHHTFLTEEVAREYQVKLQAALEMLRQKQQEAEELEADIREEKASWKTQIQYDKTNVLADFEQLRDILDWEESNELQNLEKEEEDILKSLTNSETEMVQQTQSLRELISDLEHRLQGSVMELLQGVDGVIKRTENVTLKKPETFPKNQRRVFRAPDLKGMLEVFRELTDVRRYWVDVTVAPNNISCAVISEDKRQVSSPKPQIIYGATRYQTFVNFNYCTGILGSQSITSGKHYWEVDVSKKTAWILGVCAGFQPDAMCNIEKNENYQPKYGYWVIGLEEGVKCSAFQDSSFHTPSVPFIVPLSVIICPDRVGVFLDYEACTVSFFNITNHGFLIYKFSHCSFSQPVFPYLNPRKCGVPMTLCSPSS [human TRIM5α, 2-codon deletion at 332]” here?
Answer: 0.856 ± 0.091

Question: How did the enrichment turn out when “MASGILVNVKEEVTCPICLELLTQPLSLDCGHSFCQACLTANHKKSMLDKGESSCPVCRISYQPENIRPNRHVANIVEKLREVKLSPEGQKVDHCARHGEKLLLFCQEDGKVICWLCERSQEHRGHHTFLTEEVAREYQVKLQAALEMLRQKQQEAEELEADIREEKASWKTQIQYDKTNVLADFEQLRDILDWEESNELQNLEKEEEDILKSLTNSETEMVQQTQSLRELISDLEHRLQGSVMELLQGVDGVIKRTENVTLKKPETFPKNQRRVFRAPDLKGMLEVFRELTDVRRYWVDVTVAPNNISCAVISEDKRQVSSPKPQIIYGARGTRYQTFFNYCTGILGSQSITSGKHYWEVDVSKKTAWILGVCAGFQPDAMCNIEKNENYQPKYGYWVIGLEEGVKCSAFQDSSFHTPSVPFIVPLSVIICPDRVGVFLDYEACTVSFFNITNHGFLIYKFSHCSFSQPVFPYLNPRKCGVPMTLCSPSS [human TRIM5α, 2-codon deletion at 340]” was run?
Answer: 1 ± 1.4

Question: With “MASGILVNVKEEVTCPICLELLTQPLSLDCGHSFCQACLTANHKKSMLDKGESSCPVCRISYQPENIRPNRHVANIVEKLREVKLSPEGQKVDHCARHGEKLLLFCQEDGKVICWLCERSQEHRGHHTFLTEEVAREYQVKLQAALEMLRQKQQEAEELEADIREEKASWKTQIQYDKTNVLADFEQLRDILDWEESNELQNLEKEEEDILKSLTNSETEMVQQTQSLRELISDLEHRLQGSVMELLQGVDGVIKRTENVTLKKPETFPKNQRRVFRAPDLKGMLEVFRELTDVRRYWVDVTVAPNNISCAVISEDKRQVSSPKPQIIYGARGTRYQTFVNNYCTGILGSQSITSGKHYWEVDVSKKTAWILGVCAGFQPDAMCNIEKNENYQPKYGYWVIGLEEGVKCSAFQDSSFHTPSVPFIVPLSVIICPDRVGVFLDYEACTVSFFNITNHGFLIYKFSHCSFSQPVFPYLNPRKCGVPMTLCSPSS [human TRIM5α, 1-codon deletion at 342]” as the sequence, how does the enrichment read?
Answer: 0.813 ± 0.37

Question: Which enrichment does the source give for “MASGILVNVKEEVTCPICLELLTQPLSLDCGHSFCQACLTANHKKSMLDKGESSCPVCRISYQPENIRPNRHVANIVEKLREVKLSPEGQKVDHCARHGEKLLLFCQEDGKVICWLCERSQEHRGHHTFLTEEVAREYQVKLQAALEMLRQKQQEAEELEADIREEKASWKTQIQYDKTNVLADFEQLRDILDWEESNELQNLEKEEEDILKSLTNSETEMVQQTQSLRELISDLEHRLQGSVMELLQGVDGVIKRTENVTLKKPETFPKNQRRVFRAPDLKGMLEVFRELTDVRRYWVDVTVAPNNISCAVISEDKRQVSSPKPQIIYGARGTRYQTFVNFNYCTGNYCTGILGSQSITSGKHYWEVDVSKKTAWILGVCAGFQPDAMCNIEKNENYQPKYGYWVIGLEEGVKCSAFQDSSFHTPSVPFIVPLSVIICPDRVGVFLDYEACTVSFFNITNHGFLIYKFSHCSFSQPVFPYLNPRKCGVPMTLCSPSS [human TRIM5α, 5-codon duplication at 343]” here?
Answer: 0.402 ± 0.018

± gives the standard deviation of the averaged measurements. Restriction of a single-cycle SIVsab GFP reporter by TRIM5α v1-loop variants in CRFK cells. Human variants: read share among cells still uninfected after two challenges over input, higher = gained restriction. Rhesus variants: share among infected cells over input, higher = lost restriction. Reporter dose not given per row. No active / inactive call per row; the paper calls a change when both replicates lie above its controls (mean + 2 SD of stop or wild-type variants, or the top frameshift score). Residues outside the varied loop are taken from Swiss-Prot. The paper reads the human single-substitution scores as noise; they and the rhesus combinations repeat poorly (rank correlation 0.3 to 0.4), indel scores repeat only for the top variants, rhesus substitutions well (0.9).
